{"source": "PubChem BioAssay AID652106", "about": "(National Center for Advancing Translational Sciences (NCATS), 2013)", "note": "Hit rate of the full screen: of about 370,000 compounds, about 500 (0.14%) were called active. This list was built around the results that the source calls inconclusive (neither active nor inactive); the mix of calls is not that of the screen. Calls follow the shape of the dose curve; as a rule, active = well fitted activation curve with a large enough effect; inconclusive = small, poorly fitted or top-dose-only effect; inactive = no such curve, though single readings can be large or run the other way. Where the call is inconclusive, the potency comes from a doubtful curve fit. Potency is read from the fitted curve at half-maximal effect; tags tell the direction and shape of the fitted curve.", "data": [{"test": "qHTS of alpha-syn Inhibitors; also: nearly all actives have a fitted effect of over 65% in size; as to growth rescue (activation): % of control where 0% means no effect", "details": "Yeast expressing alpha-synuclein, BacTiter-Glo, 24 h; Potency: growth rescue unless noted; growth rescue (activation): at 46.1 µM (top of the series) unless noted", "summary_of_the_method": "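Galactose-induced alpha-syn yeast (OD600=0.02, raffinose-pregrown) + pinned cpd, 24 hr, 30 deg C; growth by BacTiter-Glo luminescence. Growth restoration scores as activation.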", "values": [{"compound": "Cc1cccc(-c2nnc(NC(=O)c3ccc(Cl)cc3)o2)c1", "Potency": "active: 7.08 µM"}, {"compound": "Cc1ccc(S(=O)(=O)N2CCN(c3ccc(C(=O)N4CCOCC4)cc3[N+](=O)[O-])CC2)cc1", "Potency": "inactive"}, {"compound": "O=C(NCc1ccccn1)c1cc(-c2ccccc2)nc2ccccc12", "Potency": "inconclusive: 35.5 µM [activator, single point]"}, {"compound": "CCOC(=O)C1=NN(C(=O)c2ccc(OC)cc2)C(O)(c2ccc(Cl)cc2)C1", "note": "(stereo not given)", "Potency": "inconclusive: 12.6 µM [activator, single point]"}, {"compound": "CC(=O)c1cccc(NC(=O)COc2ccccc2C(=O)Nc2ccccc2)c1", "Potency": "inactive"}, {"compound": "COCc1ccc(CN2CCCC(C(=O)Nc3ccccc3-c3ccc(OC)cc3)C2)o1", "note": "(stereo not given)", "Potency": "inactive"}, {"compound": "COc1cccc(-c2cc(C(=O)N3CCN(C(=O)c4ccco4)CC3)[nH]n2)c1", "Potency": "inconclusive: 5.62 µM [activator, single point]"}, {"compound": "CCC(=O)C1=C(O)C(c2cccc(Oc3ccccc3)c2)CCC1=O", "note": "(stereo not given)", "Potency": "inconclusive: 31.6 µM [activator, single point]"}, {"compound": "COc1ccccc1OCc1ccc(C(=O)N(C)c2ccccc2)o1", "Potency": "inconclusive: 6.31 µM [activator, single point]"}, {"compound": "CC(Cc1ccccc1)N1C(=O)c2cccc([N+](=O)[O-])c2C1=O", "note": "(stereo not given)", "Potency": "inconclusive: 35.5 µM [activator, single point]"}, {"compound": "O=C(NCc1cccc(Cl)c1)c1cccc2c(-c3cccnc3)coc12", "Potency": "inactive"}, {"compound": "COc1ccccc1CN(C)C(=O)c1cc(S(=O)(=O)N2CCCCCC2)ccc1OC", "Potency": "inconclusive: 35.5 µM [activator, single point]"}, {"compound": "CN(C(=O)C1Cc2c(-c3ccccc3Oc3ccccc3)ccnc2O1)c1ccccc1", "note": "(stereo not given)", "Potency": "inactive"}, {"compound": "O=C(Oc1ccccc1)N1CCCCC1", "Potency": "inconclusive: 28.2 µM [activator, single point]"}, {"compound": "O=C(Oc1cccc2cccnc12)c1ccco1", "Potency": "inactive"}, {"compound": "COc1ccc(CC(=O)N2CCCC2)c(OC)c1", "Potency": "inactive"}, {"compound": "O=C1c2ccc3c4c(ccc(c24)C(=O)N1NC(=O)C(F)(F)F)CC3", "Potency": "inconclusive: 3.55 µM [activator, single point]"}, {"compound": "CN1CCN(C(=O)c2ccc(CNS(=O)(=O)c3ccc(F)c(Cl)c3)cc2)CC1", "Potency": "inconclusive: 3.55 µM [activator, single point]"}, {"compound": "CC(C)c1ccc(N(CC(=O)NCC2CCCO2)C(=O)CCC(=O)Nc2nccs2)cc1", "note": "(stereo not given)", "Potency": "inconclusive: 31.6 µM [activator, single point]"}, {"compound": "N/C(=N\\OC(=O)c1cccc2ccccc12)c1cccnc1", "Potency": "inactive"}, {"compound": "CCn1cc(CN2CCC(C(=O)Nc3ccc(Oc4ccccc4F)cc3)CC2)cn1", "Potency": "inconclusive: 5.62 µM [activator, single point]"}, {"compound": "CC(C)(C)NC(=O)C(c1cccc2ccccc12)n1c(=O)c(-c2cc3ccccc3[nH]2)nc2ccccc21", "note": "(stereo not given)", "Potency": "inconclusive: 6.31 µM [activator, partial curve]"}, {"compound": "CC(c1ccccc1)N1CCN(C(=O)CCl)CC1", "note": "(stereo not given)", "Potency": "inactive"}, {"compound": "COc1ccc(-c2csc(C(O)c3ccc(F)c(F)c3)n2)cn1", "note": "(stereo not given)", "Potency": "inconclusive: 35.5 µM [activator, single point]"}, {"compound": "CON(C)S(=O)(=O)c1ccc2c(c1)NC(=O)C1CCCN21", "note": "(stereo not given)", "Potency": "inconclusive: 31.6 µM [activator, single point]"}, {"compound": "CC1(c2ccc(OC(F)F)cc2)NC(=O)N(CC(=O)Nc2ccccc2)C1=O", "note": "(stereo not given)", "Potency": "inactive"}, {"compound": "CC(C)N(C(=O)[C@H]1C[C@H](CC(=O)NCc2ccco2)C(=O)N2CCc3c([nH]c4cc(-c5ccco5)ccc34)[C@]12C)C(C)C", "Potency": "inconclusive: 35.5 µM [activator, single point]"}, {"compound": "COCCNC(=O)C1(C)CCCN(Cc2ccc3ccccc3c2Br)C1", "note": "(stereo not given)", "Potency": "inconclusive: 3.98 µM [activator, single point]"}, {"compound": "C=CCN(CC=C)C(=S)NC(=O)c1ccc([N+](=O)[O-])cc1", "Potency": "inconclusive: 22.4 µM [activator, single point]"}, {"compound": "COc1cc(C(=O)OCC(=O)N2CCCC2=O)cc(OC)c1C", "Potency": "inconclusive: 35.5 µM [activator, single point]"}, {"compound": "O=C(Nc1ccc(Br)cc1)C1CCCC1", "Potency": "inactive"}, {"compound": "O=C(/C=C/Nc1ccc(S(=O)(=O)Nc2cnc3ccccc3n2)cc1)c1cccnc1", "Potency": "inconclusive: 22.4 µM [activator, single point]"}, {"compound": "OC(c1ccc(F)c(F)c1)c1nc(-c2cccc(C(F)(F)F)c2)cs1", "note": "(stereo not given)", "growth rescue (activation)": "inconclusive: -58.8% [activator]"}, {"compound": "Cc1ccc(C)c(N2CCN(C(=O)CCS(=O)(=O)c3cc4c(cc3Cl)NC(=O)CO4)CC2)c1", "Potency": "inactive"}, {"compound": "CC1CC(C)CN(c2oc(-c3ccc(OCc4ccc(Cl)cc4)cc3)nc2C#N)C1", "note": "(stereo not given)", "Potency": "inconclusive: 35.5 µM [activator, single point]"}, {"compound": "COC(=O)C1=C(C)NC(C)=C(C(=O)OCCN(C)Cc2ccccc2)C1c1cccc([N+](=O)[O-])c1", "note": "(stereo not given)", "Potency": "inconclusive: 5.62 µM [activator, single point]"}, {"compound": "Cc1ccc(NC(=S)NC(=O)C2CCCC2)cc1C", "Potency": "inactive"}, {"compound": "O=C1c2ccccc2NC2CCCCCN12", "note": "(stereo not given)", "Potency": "inactive"}, {"compound": "CCN1C(=O)c2cccc3cccc1c23", "Potency": "inactive"}, {"compound": "COc1ccc(C(=O)OCC(=O)Nc2ccc(N3CCOCC3)cc2)cc1", "Potency": "inconclusive: 35.5 µM [activator, single point]"}, {"compound": "CCOC(=O)N1CCN(C(=O)C[C@@H]2C[C@@]3(C(=O)OCC)CCCC=C3N(Cc3ccc(Cl)cc3Cl)C2=O)CC1", "Potency": "inactive"}, {"compound": "COc1ccc([C@H]2CC(=O)C[C@@H](CCn3ccnn3)O2)cc1", "Potency": "inconclusive: 5.62 µM [activator, single point]"}, {"compound": "Cc1cc(SCC(=O)c2ccc(O)c(O)c2)nc2ccccc12", "Potency": "inconclusive: 25.1 µM [activator, single point]"}, {"compound": "Nc1nn(S(=O)(=O)c2ccccc2)cc1-c1cccc([N+](=O)[O-])c1", "Potency": "inconclusive: 20 µM [activator, single point]"}, {"compound": "CSc1ccccc1NC(=O)CN(C)C(=O)CNC(=O)c1ccc(Oc2ccccc2)cc1", "Potency": "inconclusive: 5.62 µM [activator, single point]"}, {"compound": "COc1cc2c(cc1OC)C(C)N(C(=O)CCNC(=O)c1ccccc1)CC2", "note": "(stereo not given)", "Potency": "inconclusive: 31.6 µM [activator, single point]"}, {"compound": "COC(=O)[C@H]1[C@H]2C[C@@H]3c4[nH]c5cc(OC)ccc5c4CCN3C[C@H]2C[C@@H](OC(=O)/C=C/c2cc(OC)c(OC)c(OC)c2)[C@@H]1OC", "Potency": "inactive"}, {"compound": "Cc1cc(C)c2c(-n3cccc3)c(C(=O)NNS(=O)(=O)c3ccc(Br)cc3)sc2n1", "Potency": "inconclusive: 17.8 µM [activator, single point]"}, {"compound": "CCC/C=C/c1ccc(CN2C(CC(C)C)C(=O)N(Cc3cn(CCC4OCCCO4)nn3)CCS2(=O)=O)cc1", "note": "(stereo not given)", "Potency": "inconclusive: 31.6 µM [activator, single point]"}, {"compound": "N#Cc1cccc(S(=O)(=O)NCc2nnc3ccccn23)c1", "growth rescue (activation)": "inconclusive: 237% [activator] [at 1.84 µM]"}, {"compound": "O=C(NCC(F)(F)F)c1cc2c(c(-c3cccc(-c4ccccc4F)c3)n1)[C@H](CCO)N(C(=O)CC1CC1)C2", "Potency": "inactive"}, {"compound": "Nc1ncnc2oc(-c3ccco3)c(-c3ccco3)c12", "Potency": "active: 12.6 µM"}, {"compound": "O=C(COc1ccccc1)NCCS(=O)(=O)N1CCN(c2ccccc2)CC1", "Potency": "inactive"}, {"compound": "COc1ccc(-c2nsc(SCC(=O)Nc3cc(C)on3)n2)cc1", "Potency": "inactive"}, {"compound": "NNc1nc2c(-c3ccc(Cl)cc3)nnn2c2ccccc12", "Potency": "inconclusive: 31.6 µM [activator, single point]"}, {"compound": "O=C(N/N=C/c1ccccc1OC(F)F)c1cc(-c2ccncc2)nc2ccccc12", "Potency": "inconclusive: 3.98 µM [activator, single point]"}, {"compound": "CC(c1nnc(Sc2nnnn2-c2ccccc2)n1-c1ccc(F)cc1)N(C)C", "note": "(stereo not given)", "Potency": "inconclusive: 5.62 µM [activator, single point]"}, {"compound": "CCc1noc(C)c1C(=O)N1CCN(S(=O)(=O)c2ccccc2C(F)(F)F)CC1", "Potency": "inactive"}, {"compound": "CCc1cccc(NC(=O)CSc2nccn2C)c1", "Potency": "inconclusive: 35.5 µM [activator, single point]"}, {"compound": "NC(c1ccc(F)c(F)c1)c1nc(-c2cc(F)cc(F)c2)cs1", "note": "(stereo not given)", "Potency": "inactive"}, {"compound": "COc1ccccc1Nc1ncccc1[N+](=O)[O-]", "Potency": "inactive"}, {"compound": "COc1cc(NC(=S)N2CCN(Cc3ccccc3)CC2)cc(OC)c1", "Potency": "inactive"}, {"compound": "CCCCNC(=O)C[C@@H]1C[C@@]2(C(=O)OC)CCCCC=C2N(Cc2ccccc2)C1=O", "Potency": "inconclusive: 5.62 µM [activator, single point]"}, {"compound": "O=C(NC1CCCC1)c1ccc2c(c1)S(=O)(=O)c1ccccc1C2=O", "Potency": "inconclusive: 5.62 µM [activator, single point]"}, {"compound": "Clc1ccc(Cn2ncc3c(NCc4ccccc4)ncnc32)cc1", "Potency": "inconclusive: 25.1 µM [activator, single point]"}, {"compound": "Cc1ccnc2c1ccc1cccnc12", "Potency": "inconclusive: 31.6 µM [activator, single point]"}, {"compound": "CSc1nc(C(C)C)ccc1CNC(=O)CC(C)c1ccccc1", "note": "(stereo not given)", "Potency": "inconclusive: 15.8 µM [activator, single point]"}, {"compound": "Cc1onc(-c2c(F)cccc2Cl)c1C(=O)N(C)C1CCCCC1", "Potency": "inconclusive: 35.5 µM [activator, single point]"}, {"compound": "COC(=O)[C@@]12C[C@@H](CC(=O)NCCCCc3ccccc3)C(=O)N(Cc3ccco3)C1=CCC(C)(C)C2", "Potency": "inconclusive: 15.8 µM [activator, single point]"}, {"compound": "C[C@H](CO)N1C[C@H](C)[C@H](CN(C)Cc2ccncc2)OCc2ccccc2-c2c(n(C)c3ccccc23)C1=O", "Potency": "inconclusive: 5.62 µM [activator, single point]"}]}]}
